Over roughly 110,000 compounds, “z-score” has its median near -0.1; the highest 2% begin near 2. Some of the results follow. Active and inactive are the calls of the source.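 The calls were made as follows: active = z-score in the third read window above 3 or below -3; inactive = the rest.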

The assay deals with Metabotropic glutamate receptor 8 (Rattus norvegicus) (UniProt P70579). In words: mGluR8 Gi/Go-coupled signaling modulation – cell-based, rat, thallium flux, HTS, primary screen (AID 488969). Particulars: HEK293 rat mGluR8, GIRK (G protein-gated inwardly rectifying potassium channel) thallium flux, FluoZin2; at 10 µM; stronger effect = higher value; submaximal glutamate (EC20) added with thallium.
UniProt P70579, sequence (P70579 whole entry, looked up): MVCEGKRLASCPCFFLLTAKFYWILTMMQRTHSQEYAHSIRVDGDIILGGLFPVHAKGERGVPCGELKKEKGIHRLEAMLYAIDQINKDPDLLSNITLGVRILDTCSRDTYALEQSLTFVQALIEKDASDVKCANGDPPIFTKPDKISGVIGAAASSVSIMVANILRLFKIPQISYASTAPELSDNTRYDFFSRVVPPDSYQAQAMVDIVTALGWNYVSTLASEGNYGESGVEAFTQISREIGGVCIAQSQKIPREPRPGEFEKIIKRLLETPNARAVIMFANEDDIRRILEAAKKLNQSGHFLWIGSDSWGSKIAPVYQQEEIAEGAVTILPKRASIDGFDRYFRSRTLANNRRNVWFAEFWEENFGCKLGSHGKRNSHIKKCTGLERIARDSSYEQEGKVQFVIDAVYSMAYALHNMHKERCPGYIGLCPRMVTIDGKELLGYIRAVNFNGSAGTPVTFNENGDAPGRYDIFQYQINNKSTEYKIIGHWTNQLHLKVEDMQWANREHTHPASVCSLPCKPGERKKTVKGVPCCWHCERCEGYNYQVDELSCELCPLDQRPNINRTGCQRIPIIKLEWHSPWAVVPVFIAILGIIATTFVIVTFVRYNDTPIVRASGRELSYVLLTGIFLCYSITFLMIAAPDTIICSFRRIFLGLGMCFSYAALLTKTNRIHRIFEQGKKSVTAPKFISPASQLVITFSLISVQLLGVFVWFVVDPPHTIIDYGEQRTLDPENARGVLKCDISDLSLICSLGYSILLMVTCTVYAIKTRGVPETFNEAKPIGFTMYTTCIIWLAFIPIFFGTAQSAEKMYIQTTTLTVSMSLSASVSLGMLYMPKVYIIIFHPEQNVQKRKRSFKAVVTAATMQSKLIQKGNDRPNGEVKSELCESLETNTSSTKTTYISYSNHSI
As for `O=C(CSc1nnnn1C1CCCCC1)NCc1ccccc1`, the z-score was -0.0244.

For `Cc1ccc(-n2c(C)cc(-c3csc(N)n3)c2C)cc1`, the z-score is -0.561.

The compound `CCOc1cccc2cc(C(=O)N3CCc4ccccc4C3)c(=O)oc12` showed a z-score of -0.741.

Turning to `COCCCNC(=O)CCCC(=O)NCCCOC`, the z-score came to 0.812.

Compound `C=CCNCCOCCOc1ccc(C)cc1Br` had a z-score of 0.527.

Consider `CC(C)N(C(=O)C1CC(=O)OC12CCCCC2)C(C)C` (stereo not given), for which the z-score is -0.192.

For the compound `Cc1ccc2cccc(Oc3ncnc4scc(-c5ccccc5)c34)c2n1`, the z-score is -1.42.

`Cc1cc(/C=C2\SC(=Nc3ccc(N4CCOCC4)cc3)N(C)C2=O)c(C)n1-c1cccnc1` had a z-score of 0.202.

Consider `CCCCN(C)C(=O)CCC(=O)Nc1ccc2nc(N3CCOCC3)cc(C)c2c1`, for which the z-score was -0.895.

Compound `CCn1c(=O)c2c(n3cnnc13)-c1ccccc1CC21CCCCC1` yielded a z-score of -1.61.

Consider `O=C(O)c1cccc(-c2ccc(/C=N/NC(=O)c3cccnc3)o2)c1`, for which the z-score was -0.216.

The compound `O=C1CC(C(=O)N(CC2CCCO2)C(C(=O)NC2CCCCC2)c2ccncc2)CS1` (stereo not given) returned a z-score of -0.648.

Take `O=[N+]([O-])c1cc(/C=N/Nc2nc(N3CCOCC3)nc(N3CCOCC3)n2)ccc1Cl`: the z-score was -0.222.

`O=C(/C=C/c1cccc([N+](=O)[O-])c1)Nc1cccc(NC(=O)c2ccco2)c1` yielded a z-score of 0.186.

`CC1=C(C)CC(C(=O)NCc2ccc3c(c2)OCO3)C(C(=O)O)C1` (stereo not given): the z-score was -0.335.

The compound `COc1ccccc1S(=O)Cc1ccc(C(=O)NCCc2ccc(Cl)cc2)o1` (stereo not given) registered a z-score of -0.45.

Consider `C/C(=C\c1ccccc1)C(=O)NC1CCSC1=O` (stereo not given), for which the z-score came to 0.028.

Consider `COc1ccc(C2=NOC(C(=O)NCCCN3CCOCC3)C2)cc1` (stereo not given), for which the z-score was determined as 0.000804.

Compound `CCOC(=O)c1c(-c2ccccc2)cn2ccccc12` gave a z-score of -0.328.

Consider `COC(=O)c1[nH]c2cc(OC)ccc2c1NC(=O)CN1CCOCC1`, for which the z-score was -0.504.

For `CC(C)n1c(=O)c2c(O)cc(=O)oc2c2ccccc21`, the z-score is -0.109.

Regarding `Cc1ccc(S(=O)(=O)N2CCN(C3CCC(c4ccccc4)CC3)CC2)cc1` (stereo not given), the z-score is -0.275.

On to `CCc1ccc(-n2c(SCc3c(C)noc3C)nnc2-c2ccncc2)cc1`, for which the z-score was determined as 0.0471.

As for `CCC(NC(=O)c1ccc([N+](=O)[O-])cc1[N+](=O)[O-])c1ccccc1` (stereo not given), the z-score is -0.136.

As for `COc1cc(Br)cc(/C=N/c2ncn[nH]2)c1O`, the z-score is -2.37.

In turn, `O=C(CCC(=O)N1CCN(C2CCCCC2)CC1)Nc1nnc(C(F)(F)F)s1` came in with a z-score of -0.445.

With `CN1C(=O)c2ccc(C(=O)NC3CCCCC3)cc2C1=O`, the z-score turned out to be 0.22.

On to `C/C(=N\NC(=O)C(NC(=O)c1ccccc1)C(C)C)c1ccccc1` (stereo not given), for which the z-score was -0.068.

With `COC(=O)[C@H](CCSC)NC(=O)NCCc1ccccc1F`, the z-score was -0.394.

Turning to `O=C(NCC1OCCc2ccccc21)c1ccc(NC(=O)c2ccc(Cl)cc2Cl)cc1` (stereo not given), the z-score is -0.186.

In turn, `O=C(CCc1ccccc1)N1CCN(CCO)CC1` returned a z-score of 0.156.

`Cc1ccc(-n2nnnc2SCC(=O)Nc2ccccc2-c2ccccc2)cc1C` came in with a z-score of -0.158.

Consider `Cc1c(NC(=O)C(=O)/C=C(/O)c2ccccc2)c(=O)n(-c2ccccc2)n1C`, for which the z-score is -0.309.

For `COc1ccc2nc(C)cc(SCC(=O)N/N=C/c3c(OC)ccc4ccccc34)c2c1`, the z-score was -1.47.

Compound `Cn1c(Cn2c(=O)sc3ccccc32)nnc1SCc1cccnc1` had a z-score of -0.132.

The compound `N#Cc1ccc(-c2ccc(F)cc2)nc1Oc1ccccc1` displayed a z-score of 0.187.

In turn, `Cc1cccc(-n2nnc3cnn(C)c3c2=O)c1` registered a z-score of 0.893.

Turning to `O=C1c2ccccc2C(=O)N1CC(O)Cn1nnc2ccccc21` (stereo not given), the z-score amounted to 0.463.

Take `Cc1ccc(O)c(-c2cc(-c3ccccc3F)[nH]n2)c1`: the z-score is -0.351.

Consider `Cc1nn(-c2ccccc2)c2c1C(c1ccc(O)c(O)c1)N1C(=N2)C(Nc2ccccc2)=Nc2ccccc21` (stereo not given), for which the z-score is -0.165.

`COc1ccccc1NC(=O)CN1CCN(CC(=O)Nc2ccc(Cl)c(C(F)(F)F)c2)CC1` came in with a z-score of 0.46.

Consider `CCCCn1c(SCC(=O)N2CCCc3ccccc32)nc2c1c(=O)n(C)c(=O)n2C`, for which the z-score is -0.268.

As to `COC(=O)c1ccc(S(=O)(=O)c2ccccc2)c(N)c1`, the z-score is -0.0905.

Regarding `Cc1c(Cl)cccc1NC(=O)CN1CCN(CCO)CC1`, the z-score came out at 0.396.

In turn, `N=c1ncn(Cc2ccccc2)c2nc(SCCOc3ccccc3)[nH]c12` yielded a z-score of -0.517.

`c1cn2cc(CN3CCOCC3)nc2s1` registered a z-score of -0.0735.

Regarding `Cc1nn(Cc2cccc(F)c2)c(C)c1NC(=O)c1ccc(COc2ccccc2Cl)cc1`, the z-score was -0.189.

Regarding `CCN1C(=O)C2(C(C#N)=C(N)Oc3n[nH]c(-c4ccc(Cl)cc4)c32)c2ccccc21` (stereo not given), the z-score came out at 0.0293.

`CS(=O)(=O)N(CC(=O)N1CCCC1)c1cc(Cl)c(Cl)cc1Cl`: the z-score was 0.418.

For `COC(=O)c1ccc(NC(=S)NC2CCCCC2)cc1`, the z-score amounted to 0.1.

On to `CC1(C)CC(CC(=O)Nc2ccccn2)C(=O)O1` (stereo not given), for which the z-score is -0.186.

In the case of `CCCCC(CCC(=O)Nc1ccccc1C(=O)OCC)C(=O)O` (stereo not given), the z-score is -0.127.

As for `CCN(CC)CCn1c(-c2ccccc2)nc(=S)c2c1CC(C)(C)OC2`, the z-score was -0.104.

`CCNC(=O)Nn1c(C)nnc1C` came in with a z-score of 0.0579.

In turn, `CCN1CCN(C(=O)c2ccc(CN(c3ccccc3)S(=O)(=O)c3ccccc3)cc2)CC1` displayed a z-score of -1.46.

As to `OCCN(Cc1ccccc1)CC1CC2C=CC1C2` (stereo not given), the z-score came to 0.0197.

`Cc1nc2ccccc2cc1OCc1ccc(Cl)cc1` returned a z-score of 0.163.

For `O=C(N/N=C/c1ccncc1)c1cccc([N+](=O)[O-])c1`, the z-score came out at 0.0455.

`CCOC(=O)c1ccc(NC(=O)COc2ccc(S(=O)(=O)NC(C)(C)C)cc2)cc1` displayed a z-score of 0.249.

The compound `CCCc1cc(C(=O)Nc2ccc(F)cc2F)no1` showed a z-score of -0.353.

For `CC(=O)Nc1ccccc1C(=O)C(=O)Nc1cccc(F)c1`, the z-score came to 0.0276.

As to `COC(=O)c1ccc(NC(=O)CCN2CCN(CCC(=O)Nc3ccc(C(=O)OC)cc3)CC2)cc1`, the z-score is 0.0996.

The compound `COc1cc2c(cc1NC(=S)NC(=O)/C=C/c1ccco1)oc1ccccc12` came in with a z-score of 0.0976.

Consider `Clc1ccccc1C1=Nn2c(nnc2-c2ccncc2)SC1`, for which the z-score is 0.344.

With `COc1ccc(N(CC(=O)NCC2CCCO2)C(=O)CCC(=O)Nc2nccs2)cc1` (stereo not given), the z-score is 0.126.

`CC(=O)c1ccc(N2CCN(C(=O)c3cc4c(-c5ccccc5F)nn(C)c4s3)CC2)cc1`: the z-score was -0.418.

`O=C1NCCCN1Cc1ccc(F)cc1Cl`: the z-score is 0.214.

For the compound `O=C(c1cc2nc(-c3ccccc3)cc(-c3ccccc3)n2n1)N1CCN(C(=O)c2ccco2)CC1`, the z-score was active: -3.33.

`c1ccc(CNc2nc3ccccc3[nH]2)cc1` yielded a z-score of 0.236.

`CC(NC(=O)c1ccccc1NC(=O)CSc1nnnn1C)c1ccccc1` (stereo not given) registered a z-score of 2.05.

`O=C1CCCC2=C1C(c1ccncc1)c1c(nc(SCc3ccccc3Cl)[nH]c1=O)N2` (stereo not given): the z-score was -1.24.

The compound `O=C(NCCc1cccs1)C1CC(c2ccccc2[N+](=O)[O-])=NO1` (stereo not given) yielded a z-score of -0.176.

Regarding `Cc1ccc(S(=O)(=O)/N=c2\sccn2C)cc1`, the z-score came to 0.164.

Compound `CSc1ccc(OC2CCCCC2NS(=O)(=O)c2ccc(Cl)cc2)cc1` (stereo not given) yielded a z-score of 0.803.

`O=C(CSc1cn(Cc2ccccc2)c2ccccc12)Nc1nccs1`: the z-score is -0.121.

Compound `COc1ccc(OC)c(CNC(=O)CCN2C(=O)COc3ccccc32)c1` returned a z-score of 0.307.

In turn, `CN1CCN(CC(=O)C23CC4CC(CC(C4)C2)C3)CC1` yielded a z-score of 0.435.

Compound `Cc1cccc(NC(=O)c2ccc(NCCc3ccccc3)c([N+](=O)[O-])c2)c1` showed a z-score of -0.0245.

`Cc1ccc(CN(c2ccc(C(=O)N3CCCC3)cc2)S(C)(=O)=O)cc1` came in with a z-score of -0.435.

With `CC1CC2(C)Oc3ccccc3C3OCC1(CO)C(C)C32` (stereo not given), the z-score was -0.294.

As to `CC1(C2(O)CC(c3ccccc3)ON2)CCCCC1` (stereo not given), the z-score is -0.453.

For `CCC(C(=O)Nc1nnc(-c2ccco2)s1)c1ccccc1` (stereo not given), the z-score was -0.521.

`COC(=O)C(C)C1Sc2ccccc2NC1=O` (stereo not given) gave a z-score of -0.34.

In the case of `COc1ccc(CCNc2oc(Cc3ccccc3)nc2C#N)cc1OC`, the z-score is -0.851.

Compound `Cc1nc2sc(C(c3cccc(F)c3)N3CCCCC3)c(O)n2n1` (stereo not given) had a z-score of -0.207.

In the case of `NC(=O)c1ccccc1N/C=C/C(=O)c1ccc(Cl)cc1`, the z-score stood at 0.448.

The compound `Cc1ccc(C(=O)COC(=O)c2ccncc2)cc1[N+](=O)[O-]` registered a z-score of -0.0626.

Compound `O=C(Cn1nnc(-c2ccccc2)n1)Nc1ccccc1N1CCOCC1` registered a z-score of 0.927.

`COc1ccc(C)cc1NC(=O)C(Sc1nnc(-c2ccncc2)n1-c1ccc(Cl)cc1)c1ccccc1` (stereo not given) returned a z-score of -0.174.

`Cc1cc(C)c(NC(=O)CS(=O)CC(=O)Nc2cccnc2)c(C)c1` (stereo not given): the z-score was -0.985.

Turning to `O=C(Nc1cccc(-c2nc3ncccc3o2)c1)c1ccco1`, the z-score was 0.204.

Regarding `COCCN(Cc1ccccc1)C(=S)Nc1ccc(OC(F)F)cc1`, the z-score was -0.227.

As to `CCCCNC(=O)CSc1nc2ccc(NC(=O)CSc3nnc(COc4ccccc4C)n3C)cc2s1`, the z-score was -0.146.

Consider `CN1CCN(c2ccc(S(=O)(=O)N3CCCCC3)cc2NC(=O)Cc2ccc(Cl)cc2)CC1`, for which the z-score was -0.00259.

The compound `COc1ccc(CNC(=O)CN2C(=O)C3CCCN3c3ncc(Cl)cc32)cc1` (stereo not given) registered a z-score of -0.311.

The compound `Cc1cc(NC(=O)COC(=O)C2COc3ccccc3O2)no1` (stereo not given) returned a z-score of -0.0514.

Compound `O=C(OC1CCN(c2ncc(C(F)(F)F)cc2Cl)CC1)c1ccc(Cl)cc1` came in with a z-score of -0.0974.

For `COc1ccc(C(=O)N/N=C/c2ccc(OC(=O)c3ccccc3)cc2)cc1`, the z-score is -0.28.

For `O=C(COc1ccccc1)NNC(=O)c1cccs1`, the z-score is -0.157.

In turn, `CCC(=O)N1CCCc2cc(S(=O)(=O)N3CCN(c4ncccn4)CC3)ccc21` came in with a z-score of 0.519.

As to `Cc1ccc(S(=O)(=O)NCCCCCC(N)=O)cc1`, the z-score stood at 0.00872.

Take `CCOc1ccccc1NC(=O)C(OC(=O)c1ccccc1)c1ccccc1` (stereo not given): the z-score was -0.172.

Turning to `COC(=O)C1=C(N)c2ccccc2C1(C#N)c1ccccc1` (stereo not given), the z-score is -0.443.

`CCn1c2ccccc2n2c(=O)c(=O)n(CC(=O)Nc3ccc(C(C)C)cc3)nc12` displayed a z-score of -0.181.

The compound `O=c1c(/C=C(\O)c2ccc(F)cc2)nc2ccccc2n1-c1ccccc1` showed a z-score of -0.472.

Turning to `COc1cc(NC(=O)CN2CCN(S(=O)(=O)c3ccc(C(C)C)cc3)CC2)cc(OC)c1`, the z-score is -0.348.

Turning to `O=C(CN(Cc1ccco1)C(=O)CNS(=O)(=O)c1ccccc1)NC1CCCCC1`, the z-score is -0.479.

`CC(=O)C(N=Nc1ccccc1)(Sc1nnc(-c2ccccc2)n1-c1ccccc1)C(C)=O` came in with a z-score of -0.758.

`CCn1c(=O)c2c3c(sc2n2cnnc12)CCC3` came in with a z-score of -1.81.

The compound `C/C(=N\NC(=O)c1ccc(=O)[nH]n1)c1cccnc1` returned a z-score of 0.48.

The record behind these values is PubChem BioAssay AID488969 (Vanderbilt High Throughput Screening Facility, 2010).
